Laboratory results reported in the supplement of paper PMC3334620.
In all, about 33,000 sequences were measured (“E-score (-0.5 to 0.5)”: median about -0.053, highest 2% from about 0.37 on). The list shows a part of the results.

Each sequence was assayed against Hap1 (UniProt P0CE41) (assay: PBM E-score (8-mer binding enrichment) (E-score (-0.5 to 0.5)); higher = stronger / more preferred TF binding; most listed sequences are background and not binding sites). Conditions: protein concentration: 200 nM; construct: GST-DNA-binding domain.
UniProt P0CE41, sequence (P0CE41 whole entry, the tested form may be a part): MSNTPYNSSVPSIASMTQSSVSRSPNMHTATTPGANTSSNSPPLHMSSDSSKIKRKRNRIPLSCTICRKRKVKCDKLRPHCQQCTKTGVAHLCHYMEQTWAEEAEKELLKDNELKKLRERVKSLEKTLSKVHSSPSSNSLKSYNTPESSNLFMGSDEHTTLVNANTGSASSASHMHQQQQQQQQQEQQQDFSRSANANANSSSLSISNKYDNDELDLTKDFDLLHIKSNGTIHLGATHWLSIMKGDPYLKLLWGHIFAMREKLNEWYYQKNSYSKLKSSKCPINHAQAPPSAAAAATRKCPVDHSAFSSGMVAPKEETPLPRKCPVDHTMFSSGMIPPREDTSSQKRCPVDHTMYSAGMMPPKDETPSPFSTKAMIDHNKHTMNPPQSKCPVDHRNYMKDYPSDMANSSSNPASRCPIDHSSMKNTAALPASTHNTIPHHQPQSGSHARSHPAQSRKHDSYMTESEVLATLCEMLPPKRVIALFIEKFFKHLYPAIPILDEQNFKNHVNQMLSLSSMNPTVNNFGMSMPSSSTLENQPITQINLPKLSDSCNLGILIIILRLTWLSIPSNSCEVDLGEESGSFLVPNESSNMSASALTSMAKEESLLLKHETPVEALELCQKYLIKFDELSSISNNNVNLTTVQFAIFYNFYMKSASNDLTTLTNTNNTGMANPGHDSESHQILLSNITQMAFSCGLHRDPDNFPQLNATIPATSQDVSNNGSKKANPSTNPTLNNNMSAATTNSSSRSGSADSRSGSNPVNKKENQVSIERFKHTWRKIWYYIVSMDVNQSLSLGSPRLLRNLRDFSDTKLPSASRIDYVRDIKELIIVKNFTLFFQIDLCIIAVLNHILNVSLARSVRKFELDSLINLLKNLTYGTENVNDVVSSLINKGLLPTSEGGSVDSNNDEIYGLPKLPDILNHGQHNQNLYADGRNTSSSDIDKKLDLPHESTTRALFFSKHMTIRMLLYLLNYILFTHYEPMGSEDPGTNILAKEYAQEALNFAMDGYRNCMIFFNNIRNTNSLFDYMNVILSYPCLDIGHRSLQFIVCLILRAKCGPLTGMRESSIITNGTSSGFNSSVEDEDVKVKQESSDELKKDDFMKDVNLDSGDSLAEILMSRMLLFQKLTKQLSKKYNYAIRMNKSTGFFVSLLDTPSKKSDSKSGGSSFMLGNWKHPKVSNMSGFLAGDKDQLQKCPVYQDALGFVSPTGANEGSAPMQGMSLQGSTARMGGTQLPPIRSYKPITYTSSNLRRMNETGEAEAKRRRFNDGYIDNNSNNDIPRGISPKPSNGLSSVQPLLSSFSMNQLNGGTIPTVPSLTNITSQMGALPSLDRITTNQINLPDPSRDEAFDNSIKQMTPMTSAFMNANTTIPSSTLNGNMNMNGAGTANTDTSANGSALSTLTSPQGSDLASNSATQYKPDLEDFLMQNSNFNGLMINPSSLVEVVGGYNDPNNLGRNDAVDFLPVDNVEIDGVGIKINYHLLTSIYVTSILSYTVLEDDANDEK
Experimental: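 Universal 'all 10-mer' protein binding microarrays (Agilent AMADID 015681) probed with GST-tagged S. cerevisiae TFs (full-length or DBD) made by in vitro transcription/translation (PURExpress), about 100-200 nM. Bound TF was detected with fluorescent anti-GST. Each ungapped 8-mer (which stands for itself and its reverse complement) is scored by the PBM enrichment score (E-score), a modified Wilcoxon-Mann-Whitney statistic from -0.5 to +0.5, computed with the Universal PBM Analysis Suite. Scale: above 0.35 generally sequence-specific binding.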

Point of comparison: AAATCTTA, “PBM E-score” value -0.214. Against it:
- CTTCGCAA — higher, -0.0531
- GGGCCATA — higher, 0.194
- TATAGCGA — higher, -0.129
- AAACATGA — lower, -0.353
- TCTCTTAA — higher, -0.0735
- ACCGGTAG — higher, 0.228
- GATGGGTA — higher, -0.088
- AAAGTGGC — higher, 0.00164
- GCTCATAA — higher, 0.0768
- ATCAGGTC — higher, -0.132
- AATAATCG — higher, -0.041
- AGTGTCCC — higher, 0.117
- CCGTCCCA — higher, 0.153
- ATGATAAT — higher, -0.033
- ATGCTCGA — higher, -0.153
- GGCCTGGA — higher, -0.2
- CACAAGTC — lower, -0.229
- GCCTTTAA — higher, 0.0534
- AATTCGGC — higher, 0.131
- CGTCATAC — higher, -0.023
- GAGAGAGA — higher, -0.0161
- GCTTCGAA — higher, -0.121
- ATATGTGG — higher, -0.178
- CTGCGCGA — higher, -0.0115
- AGACAACT — higher, -0.0428
- AACGGATC — higher, 0.273
- CGATTAGC — higher, 0.0149
- ATCATTCA — higher, -0.104
- CGCTAGAG — higher, 0.0161
- CTTCAGGC — lower, -0.238
- GAGGTGTA — higher, -0.124
- CAAGGGTG — higher, -0.0184
- ACCCCTTA — higher, 0.0742
- GGAACGAA — higher, 0.084
- GTGTAAGA — higher, -0.204
- CTAGAGAG — lower, -0.286
- CTACCGTC — higher, -0.0171
- CGGGTTAC — higher, 0.221
- ACTTTGCT — higher, -0.0503
- GCTGCAGC — higher, 0.103
- TAAGGTAA — higher, -0.0314
- GCGGATTA — higher, 0.189
- GGGAGACA — higher, 0.0397
- AATGTGCC — higher, 0.00838
- GCGTTACC — higher, 0.203
- CCGCGAGC — higher, 0.173
- GTGTCGCA — higher, -0.131
- CCCGCGTC — higher, 0.194
- GAGTAGCC — higher, -0.102
- TCCTTTAA — higher, 0.123
- CGAGTGAC — higher, 0.0153
- ATATAATG — higher, -0.169
- ACTGTGGG — lower, -0.362
- AGATTGCA — higher, -0.141
- CGTAGATA — higher, 0.0963
- CCGGGCAA — higher, 0.322
- GCGACACA — higher, -0.0302
- CACCAGTC — higher, -0.184
- ATCGTAGG — lower, -0.254
- AGTTCCCC — higher, 0.196
- AAGTAAGG — higher, 0.0149
- AAAGCATC — higher, -0.0846
- TACTCGAA — lower, -0.263
- GTGATCAC — higher, 0.0608
- ATGGGGAA — higher, 0.0435
- AATCGACC — higher, 0.192
- AAGGGGGC — higher, -0.17
- AGTGAAGC — higher, -0.0458
- GGTAAACA — higher, 0.0313
- AAATCTGG — higher, 0.068
- AGCTGAAC — higher, -0.176
- AACGGTAT — higher, 0.0602
- CGCGGATC — higher, 0.172
- CGCACAGC — higher, 0.119
- GCCCCTCC — higher, -0.0479
- AATGGGTA — higher, -0.15
- CCTGCATA — higher, -0.0504
- CCCAGTAC — higher, -0.213
- AGGACTTA — higher, 0.18
- CGTTAAAA — higher, 0.146
- ACTATCCC — higher, -0.0617
- CGGGTAAG — higher, 0.0144
- ACCCCCGG — higher, 0.368
- GGAACACA — higher, -0.109
- AAGAGCGC — higher, -0.179
- CATCCGAA — higher, 0.368
- CGGCCGTC — higher, 0.277
- AGGCGGCG — higher, 0.11
- CACTGCCC — higher, -0.0237
- AAAGCGGA — higher, 0.275
- CTTGGAGC — higher, -0.121
- GCACCTCC — higher, 0.0324
- CATGGAGC — higher, -0.183
- GCCGTATA — higher, 0.138
- AGAGACCG — higher, 0.0963
- GCCCAATA — higher, 0.0755
- ATTGTCAC — higher, -0.0894
- CCTAACCA — higher, -0.173
- GGGTAGCA — higher, 0.0223
- TCACCAGA — higher, -0.189
- CCCCGCTA — higher, 0.344
- GGTCGTTA — higher, -0.00692
- GTGCCACA — lower, -0.336
- AAAGGTCA — higher, -0.194
- ATGTTGCA — lower, -0.266
- GGGACGAC — higher, -0.117
- TACCATAA — higher, -0.0311
- AGCGACGA — higher, -0.16
- TACAATAA — higher, -0.144
- AGAAAAGC — higher, -0.0527
- GACGAGAA — higher, -0.0307
- GGCGCACA — higher, 0.0367
- CGTAAAGC — higher, -0.0471
- TAATATCA — higher, -0.0611
- TTGGGAAA — higher, -0.142
- CTCATCCA — lower, -0.294
- ATCTTACA — higher, -0.126
- CCCGGTAG — higher, 0.336
- ACCGAGCC — higher, 0.277
- TACTAGGA — higher, -0.103
- CCAATCGG — higher, 0.208
- AGGACACT — higher, -0.148
- CCAAGAAG — lower, -0.228
- CCGCATAA — higher, 0.331
- CTTTCGTC — higher, 0.00964
- CGGCACTA — higher, 0.368
- ACTATTCG — higher, -0.0974
- CTGACATA — lower, -0.229
- ACAGTAGC — higher, -0.116
- GATTGCAA — higher, -0.0227
- AGATGCGC — higher, -0.0857
- ACTATAAC — higher, 0.0195
- CGAACTAC — higher, 0.127
- CTGAGAGC — higher, -0.0186
- AGAGGTCC — higher, 0.104
- GCCGACGA — higher, 0.202
- ACGTAGAC — lower, -0.353
- CGATTCGC — higher, 0.133
- CGACTATC — higher, 0.0793
- ATAGAAAT — higher, 0.0331
- ATCCCCAA — higher, -0.165
- CAAGTCTA — higher, -0.201
- TAGGGCGA — higher, -0.203
- TAATGAGA — higher, -0.164
- CCTGGTCC — higher, 0.138
- AATCTGAC — higher, -0.206
- AGTGATTA — higher, 0.113
- CCCTCCGA — higher, 0.253
- GGCTCTCA — higher, -0.124
- CATACTTA — lower, -0.231
- ACTCGGTA — higher, 0.113
- AAGATCAG — the same, -0.214
- TAGCCCTA — lower, -0.22
- CCTATTCG — higher, 0.085
- CTCTGATA — higher, -0.087
- CGCGCAGC — higher, 0.0272
- GAGCACGC — higher, -0.0883
- AAAGTCGA — higher, -0.171
- AACACGCT — higher, 0.0544
- AATCATAC — higher, 0.00642
- ACCGTCTA — higher, -0.00308
- CTGTGTCC — higher, -0.0361
- ACTCTAGC — higher, -0.208
- CTTTTCTC — higher, -0.094
- GCTCACAA — higher, -0.11
- ATATATAT — higher, 0.25
- ATATCAAC — higher, 0.0205
- CGTCCAAC — lower, -0.267
- ACCGCGTG — higher, 0.0442
- CTAGGCTC — higher, -0.155
- AAGACACA — lower, -0.238
